# The list shows a part of the results.
# Biological target: T1, OsWOX13 (Oryza sativa, UniProt Q5QMM3 1-267)
# T1 sequence: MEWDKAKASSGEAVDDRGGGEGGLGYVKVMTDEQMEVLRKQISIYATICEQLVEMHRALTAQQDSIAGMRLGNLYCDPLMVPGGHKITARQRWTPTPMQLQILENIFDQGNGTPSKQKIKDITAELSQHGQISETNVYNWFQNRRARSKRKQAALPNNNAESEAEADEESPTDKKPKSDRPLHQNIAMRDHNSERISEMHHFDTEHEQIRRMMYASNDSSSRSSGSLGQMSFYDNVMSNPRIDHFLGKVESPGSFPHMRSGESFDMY
# Assay: protein-binding microarray (RPBM); PBS, 2% BSA, 51.3 ng/ul salmon testes DNA, 50 uM zinc acetate, 200 nM TF, 25 C, 1 h; high values mean tight binding
# Conditions: protein: recombinant; tags: N-terminal polyhistidine and DsRed monomer fusion (pET32a); label: CyDye5-dUTP incorporated in the synthesized complementary strand; 3' TTTTT single-stranded linker to array surface; dsDNA, one strand shown
# In short: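 Transcription factors were each fused at the N-terminus to a polyhistidine tag plus DsRed and expressed in E. coli BL21-CodonPlus before Ni–NTA purification. Binding to a double-stranded custom Agilent array was carried out with 200 nM protein at 25 °C for 1 h in PBS, 2% BSA, salmon testes DNA and 50 µM zinc acetate. The binding signal is per-feature fluorescence intensity, in arbitrary units, on an Axon 4000B scanner.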
row,Sequence,binding signal
1,ATGGATTAGATTCGGGTCACTTTTAAGGGAGTCAAAGTGGCGGAGTCACCTAGTGCAG,3450 fluorescence intensity (a.u.)
2,TTGATTTTACAGATTGTTGGGGATTGGGGTTGAACCAGCCCGGAGTCACCTAGTGCAG,19400 fluorescence intensity (a.u.)
3,ATATGGATCGATTAATCAGCTGCCAATTAAGTCCGGTCAACGGAGTCACCTAGTGCAG,17100 fluorescence intensity (a.u.)
4,ACACTCCGATCAATTAGATTAATCTTTTATAAAACTGGGACGGAGTCACCTAGTGCAG,13600 fluorescence intensity (a.u.)
5,ACTACCATGCTTCATATGATTGAGCGCGCTGCAATTTGCACGGAGTCACCTAGTGCAG,4900 fluorescence intensity (a.u.)
6,AGCTTTCTAACTGATTAAATCCAATGGTTGAGAATTTTGTCGGAGTCACCTAGTGCAG,6460 fluorescence intensity (a.u.)
7,ATTTGGAGCTCAATCACTAGTACACGAATGATTTTCGATTCGGAGTCACCTAGTGCAG,4130 fluorescence intensity (a.u.)
8,CATTGATATGCATTATATTTGTACTTGTGAGGGGTAGAAACGGAGTCACCTAGTGCAG,6510 fluorescence intensity (a.u.)
9,ATACATTAATTTGATGCCCCAATAGAAGCACGCCAATCATCGGAGTCACCTAGTGCAG,12000 fluorescence intensity (a.u.)
10,AATTTATTAAGCCTAATTAATCCGTCATTAGCAAATATTTCGGAGTCACCTAGTGCAG,3950 fluorescence intensity (a.u.)
11,TATAATAATTAACCATGTGCTAACGAGTTTTCTCAATGTCCGGAGTCACCTAGTGCAG,9060 fluorescence intensity (a.u.)
12,GGTTTGATAATTAAAGGAGTCGTTATACCCGGTTTTATCGCGGAGTCACCTAGTGCAG,5980 fluorescence intensity (a.u.)
13,ATCTGATTAGGTTTTGGGTTTAAGTAGGAGAGGGTTGTGACGGAGTCACCTAGTGCAG,20500 fluorescence intensity (a.u.)
14,TATAATTATTTAGGTGGCATGCAAGAAACGGGTGGACGTCCGGAGTCACCTAGTGCAG,3280 fluorescence intensity (a.u.)
15,GGTAATTAATAATATACTCCTTCGTATCTAAATTAACTTGCGGAGTCACCTAGTGCAG,33600 fluorescence intensity (a.u.)
16,CTCCTTAACATGACAATCTAATACAAAATATGATATATTTCGGAGTCACCTAGTGCAG,6350 fluorescence intensity (a.u.)
17,ACAAAACAAATTACAGATTCCGCCTGCAAATTATGAGACACGGAGTCACCTAGTGCAG,6510 fluorescence intensity (a.u.)
18,CTGATTCAAATTTGAATTTGAATTTGAATTCAAATATTTTCGGAGTCACCTAGTGCAG,6240 fluorescence intensity (a.u.)
19,TAACCGTAATTAAATTCTGTACACAAATCACAAACCAACACGGAGTCACCTAGTGCAG,20600 fluorescence intensity (a.u.)
20,AGACAAATTAAATGGTTCGACCCTGAGACCACCGGAAGGACGGAGTCACCTAGTGCAG,8520 fluorescence intensity (a.u.)
21,TCAATTAACTCCCATGACACATGTCTCGTTATCTCCTAAACGGAGTCACCTAGTGCAG,3740 fluorescence intensity (a.u.)
22,TTTGATGGGGAGATTTGCTCTGGCAACCATTCGGCTATGGCGGAGTCACCTAGTGCAG,16800 fluorescence intensity (a.u.)
23,GCCATGTTAATTAGCATGCAGTTGTGTTGTGATGGATGACCGGAGTCACCTAGTGCAG,21700 fluorescence intensity (a.u.)
24,CTTAATTACTCCTATATATATAAGGCAACCTATTATTGCCCGGAGTCACCTAGTGCAG,25900 fluorescence intensity (a.u.)
25,ACGATGACTGGGAGAGGTGATGAGATCTGGTGAGGTGTCCCGGAGTCACCTAGTGCAG,12100 fluorescence intensity (a.u.)
26,AAAATGATTTCAGATATGGTTTATATTAGGACTTGGGAGTCGGAGTCACCTAGTGCAG,4420 fluorescence intensity (a.u.)
27,TCCATGCCAATTACACCTATTGCCAAAACACATGAAGCAACGGAGTCACCTAGTGCAG,3660 fluorescence intensity (a.u.)

row,Sequence,binding signal
1,GTGTGATTGTGGGAAGGCTGGCCGCGTCGGGCATGCACGCCGGAGTCACCTAGTGCAG,15200 fluorescence intensity (a.u.)
2,AAAATATGGAGATAATTGCTGCTAGTGGGTTGCAACTATTCGGAGTCACCTAGTGCAG,4400 fluorescence intensity (a.u.)
3,AGTCCATGATTAGCCATAAGTGCTATAGTAACCCACATGTCGGAGTCACCTAGTGCAG,20400 fluorescence intensity (a.u.)
4,TTTTAGATAGAAGAAACTTTTCTTCTTGAATTCTTGACTGCGGAGTCACCTAGTGCAG,4720 fluorescence intensity (a.u.)
5,ATTTGCTAATGACGGATTAATTAGATTTAATAAATTCATCCGGAGTCACCTAGTGCAG,39700 fluorescence intensity (a.u.)
6,AAATGATTTGCTAAGCAGTTATTCCAGAGTCTTAGTTAAGCGGAGTCACCTAGTGCAG,22800 fluorescence intensity (a.u.)
7,AATACAAATTAGTATATTTATTCACTAACTTATCTAGACACGGAGTCACCTAGTGCAG,19200 fluorescence intensity (a.u.)
8,GCCTAATTACGCCACGATTTAACAATACAGTGCTACAGTACGGAGTCACCTAGTGCAG,30200 fluorescence intensity (a.u.)
9,TCCGAATATATATTAGTCAATTATACTATATTATCCTTCCCGGAGTCACCTAGTGCAG,4970 fluorescence intensity (a.u.)
10,AAAGATTCCTAATTTAGATAACGTGTTTACACCACGACGGCGGAGTCACCTAGTGCAG,4840 fluorescence intensity (a.u.)
11,ATAATAATTAATATTTCATTAATTATATGCTAACGAGTTTCGGAGTCACCTAGTGCAG,43400 fluorescence intensity (a.u.)
12,GCGAGATTGGGGAGGACATGCTCACGGAGATTCTGGTGAGCGGAGTCACCTAGTGCAG,4190 fluorescence intensity (a.u.)
13,CGAATAGATGAATAGTAATGACATTTATCTAAAATGGCACCGGAGTCACCTAGTGCAG,7230 fluorescence intensity (a.u.)
14,AACAAATTATAGATTCCGCCTATAAACTGTGAGATAAATTCGGAGTCACCTAGTGCAG,4770 fluorescence intensity (a.u.)
15,GGAAAACAAATACACATAATTACGGCATAAACACACAGATCGGAGTCACCTAGTGCAG,3970 fluorescence intensity (a.u.)
16,TCATGATTTGAGACCTCCCGGCCACTTCAGGACGGGCATCCGGAGTCACCTAGTGCAG,10600 fluorescence intensity (a.u.)
17,CGTAAATAATGATTCACAACTTACCAAAATCTATTTAACTCGGAGTCACCTAGTGCAG,4400 fluorescence intensity (a.u.)
18,CGTTAATAAGCACATGATTAAAGATGCCTAGGGTAATGAGCGGAGTCACCTAGTGCAG,17800 fluorescence intensity (a.u.)
19,ATAAATTTATTAAACATAATTAATTTATCATTAACAAGCACGGAGTCACCTAGTGCAG,33400 fluorescence intensity (a.u.)
20,GGTTAATTCCTATCTTCTGATTATATAATTTGCTGATCGTCGGAGTCACCTAGTGCAG,35500 fluorescence intensity (a.u.)
21,CTTGGGATTAATTAAGTAATTCCTCCGTTTCATATTATAACGGAGTCACCTAGTGCAG,5010 fluorescence intensity (a.u.)
22,TCGGATTGAGGTCTGAACTGGCAGATTCGGAGTTAAACCACGGAGTCACCTAGTGCAG,3410 fluorescence intensity (a.u.)
23,GCTCTGGTGTAATTGAGATCTTGCAGCACACGACTATCGTCGGAGTCACCTAGTGCAG,4510 fluorescence intensity (a.u.)
24,TCTTTACTAATTAATTCTCCCTCCATTGGCTCATCACTGACGGAGTCACCTAGTGCAG,8620 fluorescence intensity (a.u.)
25,ACTAATAGATACGAGTAGGAAGTGGTGCTAGGAGAAGTTACGGAGTCACCTAGTGCAG,4070 fluorescence intensity (a.u.)
26,GCTAAAATTATGTCACTGATATACTTATACGTGGATCGTACGGAGTCACCTAGTGCAG,19500 fluorescence intensity (a.u.)
27,GAAGGTGTGATTATGGGATGTAGACTCTAGCCTGTTCCGCCGGAGTCACCTAGTGCAG,6640 fluorescence intensity (a.u.)

# From publication PMC7819943, “Rice protein-binding microarrays: a tool to detect cis-acting elements near promoter regions in rice”
